Screen size: about 310,000 compounds; about 2,200 (0.71%) showed an effect of 50% or more. The effect is printed as a negative number. Some of the results follow.
biological target: human ether-à-go-go-related gene (hERG) potassium channel (human, UniProt Q12809); test: primary screen, population patch clamp on CHO cells stably expressing hERG
Sequence (Q12809 whole entry, looked up): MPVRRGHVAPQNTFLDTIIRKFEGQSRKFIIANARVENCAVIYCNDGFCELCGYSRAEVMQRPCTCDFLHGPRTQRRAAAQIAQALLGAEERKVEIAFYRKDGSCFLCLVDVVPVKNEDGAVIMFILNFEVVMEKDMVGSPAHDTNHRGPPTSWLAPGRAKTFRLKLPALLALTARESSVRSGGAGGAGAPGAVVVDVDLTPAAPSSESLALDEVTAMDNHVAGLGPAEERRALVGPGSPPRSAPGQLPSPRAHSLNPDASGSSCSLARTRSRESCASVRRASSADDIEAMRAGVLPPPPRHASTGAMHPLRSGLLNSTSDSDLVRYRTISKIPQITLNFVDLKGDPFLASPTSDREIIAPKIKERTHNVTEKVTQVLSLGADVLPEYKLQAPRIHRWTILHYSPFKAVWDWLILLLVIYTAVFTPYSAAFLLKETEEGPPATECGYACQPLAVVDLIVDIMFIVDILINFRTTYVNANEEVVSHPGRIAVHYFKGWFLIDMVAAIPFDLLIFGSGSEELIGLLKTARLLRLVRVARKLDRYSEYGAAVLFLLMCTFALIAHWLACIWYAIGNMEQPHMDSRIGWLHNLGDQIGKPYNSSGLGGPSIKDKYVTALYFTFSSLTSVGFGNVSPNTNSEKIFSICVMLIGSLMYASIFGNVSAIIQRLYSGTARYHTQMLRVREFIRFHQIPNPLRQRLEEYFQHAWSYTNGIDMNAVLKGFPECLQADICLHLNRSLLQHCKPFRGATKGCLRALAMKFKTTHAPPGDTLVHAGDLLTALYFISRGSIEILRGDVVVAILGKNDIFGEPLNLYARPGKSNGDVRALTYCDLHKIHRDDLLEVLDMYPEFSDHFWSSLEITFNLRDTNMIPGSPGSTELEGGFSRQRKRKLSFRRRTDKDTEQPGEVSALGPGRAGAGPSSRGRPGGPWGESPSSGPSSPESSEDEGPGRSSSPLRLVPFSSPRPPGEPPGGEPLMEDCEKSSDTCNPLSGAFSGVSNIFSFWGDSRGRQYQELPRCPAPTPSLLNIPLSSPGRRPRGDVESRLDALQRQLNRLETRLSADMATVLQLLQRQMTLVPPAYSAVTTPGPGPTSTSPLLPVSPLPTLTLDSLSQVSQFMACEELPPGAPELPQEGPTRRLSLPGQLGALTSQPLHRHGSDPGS

SMILES | hERG current change (%, negative = inhibition) at 1uM
COCCN(C(=O)CCC(=O)Nc1cc(C)on1)C(C(=O)NC(C)(C)C)c1ccccc1Cl (stereo not drawn) | 20.6%
Cc1cc(CC(=O)O)c(C)cc1CC(=O)O | 1.79%
COc1ccc(/C=C/C(=O)c2ccc(C)c([N+](=O)[O-])c2)cc1O | 14.9%
COC(=O)c1cc(N=Nc2sc(N)nc2C)cc(C(=O)OC)c1 | 5.57%
O=C(Nc1cccnc1)c1cc(F)cc(F)c1 | 11.2%
CCCc1nc(SCC(=O)Nc2cc(C)on2)c2ccccc2n1 | 10.9%
COc1ccc(C(=O)CCN2CCN(c3ccc(OC)cc3)CC2)cc1 | -74.1%
Cc1c(NC(=O)CN2CCN(c3ccc(F)cc3)CC2)c(=O)n(-c2ccccc2)n1C | 6.62%
CCC1C(c2ccccc2)N(C)C(c2ccccc2)CC1(O)c1ccccc1.Cl (stereo not drawn) | 16.7%
CCN(CC)S(=O)(=O)c1cccc(C(=O)NCCCN2CCOCC2)c1 | 15.5%
Nc1cnc(Nc2ccc(Br)cc2)nc1N.O=S(=O)(O)O | 2.64%
Cc1oc2c(O)c(O)ccc2c(=O)c1-c1ccc(Cl)cc1 | 6.21%
Cc1c(NC(=O)c2ccc(=O)oc2)c(=O)n(-c2ccccc2)n1C | 4.8%
O=C(O)CCc1cccnc1 | 8.49%
CCOC(=O)c1cccc(NC(=O)c2ccc(NC(=O)C3CCCO3)cc2)c1 (stereo not drawn) | 10.4%
COc1ccc(C2C(C#N)=C(N)Nc3nc4ccccc4n32)cc1 (stereo not drawn) | 11.8%
Cc1c(C)c2ccc(OC(C)C(=O)NC3CCN(Cc4ccccc4)CC3)cc2oc1=O (stereo not drawn) | -17.2%
O=C(O)c1ccc(CSc2nnc(COc3ccccc3)o2)cc1 | 14%
O=C(CCc1nc(-c2ccccc2F)no1)NCCc1ccccc1Cl | 4.46%
COc1ccc(S(=O)(=O)N2CCCC2C(=O)NCc2ccccc2Cl)cc1 (stereo not drawn) | 1.23%
O=C(CSc1nnc(Cn2c(=O)sc3ccccc32)n1CCc1ccccc1)N1CCOCC1 | 1.18%
Cc1cccc(/C=N\NC(=O)c2ccccc2-n2cccc2)c1 | 15.3%
CCOC(=O)c1sc(=S)n(-c2ccc3c(c2)OCO3)c1N | 9%

SMILES | hERG current change (%, negative = inhibition) at 1uM
O=C(COc1cccnc1[N+](=O)[O-])N1CCN(S(=O)(=O)c2ccccc2)CC1 | 16%
Cc1ccc(C)c(-n2nnnc2SCC(=O)NNC(=O)c2ccco2)c1 | 2.87%
C=CCc1ccccc1OCC(=O)OCCNC(=O)c1cccnc1.Cl | 8.05%
COc1ccc(/C=C2\C(=O)NCC(=O)N2Cc2ccccc2)cc1 | 7.73%
Cc1ccc(SC(=O)c2c([N+](=O)[O-])c(C)nn2C)cc1 | 9.08%
Cc1cc2ccc3ccccc3c2cc1CN(C)C.Cl | 2.33%
COc1c(OC(C)=O)ccc(/C=N\NC(=O)c2ccc(Br)cc2)c1[N+](=O)[O-] | 8.84%
O=C(Cc1c(Cl)cccc1Cl)Nc1ccncc1Cl | 8.65%
Cc1cc2c(cc(C(=O)OCC(=O)NCc3cccs3)n2C(C)C)o1 | -2.12%
Cc1cccc(C2=N/C(=C/c3cccs3)C(=O)O2)c1 | 6.53%
CC(=O)c1nn(-c2cccc(C)c2)cc1C(=O)c1cccc(Br)c1 | 15.1%
O=C(NC1CCCCCCC1)c1c(O)c2ccccc2[nH]c1=O | 20.4%
CCOc1ccc(N2C(=O)/C(=C/c3ccco3)C(=O)NC2=S)cc1 | 18%
Cc1ccccc1NC(=S)/C(=C(\[O-])c1ccc(C)c([N+](=O)[O-])c1)[n+]1ccccc1 | 2.05%
COc1cccc(-n2nnnc2SCC(=O)c2ccc(NC(C)=O)cc2)c1 | -19.4%
COc1ccccc1-n1c(SCC(=O)NC2CC2)nc2ccccc2c1=O | 3.93%
COC(=O)c1cc(CNC(=O)CC(C)c2ccccc2)ccc1OC (stereo not drawn) | 10.8%
O=C(/C=C/c1ccccc1)c1ccccn1 | 10.7%
CCCCN(C)S(=O)(=O)c1cc2c3c(c1)CCC(=O)N3CCC2 | -11%
C=CCN1C(=O)/C(=c2\sc3nc(=O)c(Cc4ccc(OC)c(OC)c4)nn3c2=O)c2ccccc21 | 11.1%
CC(=O)N(Cc1cc(=O)[nH]c2ccccc12)c1cccc(C)c1 | 4.54%
COC(=O)C1CCN(c2cc(=O)n(Cc3ccc(F)cc3)c(=O)[nH]2)CC1 | -0.998%
Nc1ccc([N+](=O)[O-])cc1C(=O)NNC(=O)c1ccco1 | 9.22%

SMILES | hERG current change (%, negative = inhibition) at 1uM
COc1ccc(-n2c(SCC(=O)Nc3nccs3)nc3sc4c(c3c2=O)CCN(C)C4)cc1 | 7.52%
Cl.NC(N)=Nc1nc2ccc(Br)cc2c(=O)[nH]1 | 3.18%
COc1ccc(NS(=O)(=O)c2cc(NC(=O)CNC(=O)c3cccc(OC)c3)ccc2C)cc1 | 17.2%
CCN(CC)C(=O)CSc1nnc([C@@H](NC(=O)OC(C)(C)C)C(C)C)o1 | -4.79%
Cc1ccc(NC(=O)CSCc2cc(=O)n3cc(C)sc3n2)c(C)c1 | 11.6%
c1ccc(Cn2ncc3ccccc32)cc1 | 10.6%
CCCCOc1ccc(S(=O)(=O)N2CCCCCC2)cc1 | -3.73%
O=C(COC(=O)c1ccc(N2CCCC2=O)cc1)c1ccccc1 | 5.18%
CCCCN1C(=O)NC(=O)C2(Cc3cc(C)ccc3N(C)C2)C1=O (stereo not drawn) | 5.39%
COc1ccc(CNC(=O)[C@@H](NC(=O)C2CCN(C(=O)[C@@H](N)Cc3ccccc3)CC2)C(C)C)cc1 | 1.21%
CCC(C)N(C(=O)COC(=O)c1cn(CC)c2nc(C)ccc2c1=O)C1CCS(=O)(=O)C1 (stereo not drawn) | 13.6%
CS(=O)(=O)c1ccc(Cl)c(NC(=O)CSC(=S)N2CCCC2)c1 | 11.6%
O=C(O)c1cccc2c1-c1ccccc1/C2=N\Nc1ccccc1 | 15.3%
COc1ccc(/C=N/NC(=O)CSc2nnc(C)n2-c2ccccc2)c(OC)c1OC | 11.3%
COC(=O)C1(Cc2cc(-c3cccc(Br)c3)no2)CCN(C(=O)OC(C)(C)C)CC1 | 12.1%
Cc1ccc(NC(=O)c2cc(F)c(F)cc2Cl)nc1 | 6.74%
Cc1nn(C(CC(=O)O)C(=O)O)c(C)c1Br (stereo not drawn) | 15%
CCC1Oc2ccc(C)cc2N(CC(=O)N2CCN(c3ccc(F)cc3)CC2)C1=O (stereo not drawn) | -8.16%
CCCCNC(=O)c1onc(CSc2ccccc2)c1C(=O)O | 7.32%
COC(=O)CN(c1ccccc1[N+](=O)[O-])S(=O)(=O)c1ccccc1 | 14.1%
Cc1c(Cl)cccc1NC(=O)CNC(=O)CCS(=O)(=O)c1ccc(F)cc1 | 2.28%
O=C(CSc1ncnc2c1nnn2Cc1ccc(F)cc1)NC1CCCC1 | 10.3%
CCCN(CCC)C(=O)Cn1c(=O)n(CCCC(=O)NCc2ccco2)c(=O)c2sccc21 | 2.97%

SMILES | hERG current change (%, negative = inhibition) at 1uM
CNC(=O)/C(C#N)=C/c1ccc(OCCOc2ccccc2)cc1 | 18.9%
COc1ccc(OC)c(CN2CCN(Cc3cc(OC)c(OC)c(OC)c3)CC2)c1 | 10.9%
CCOC(=O)c1cc(-c2ccccc2)sc1N | 7.31%
COCc1cc(=O)[nH]c(Cc2c(Cl)cccc2Cl)n1 | 10.5%
Cl.O=C(O)C1NCCc2ccccc21 (stereo not drawn) | 0.712%
CSc1cccc(NCc2ccc([N+](=O)[O-])cc2)c1 | 7.88%
CCOC(=O)Nc1ccc(NC(=O)c2ccccc2F)cc1 | 13.6%
Cc1c(C)c2ccc(OC3CCCCC3=O)cc2oc1=O (stereo not drawn) | 12.3%
Cn1c(CCNC(=O)c2ccc(F)cc2)nc2ccccc21 | -3.41%
COc1ccc(C2CC(c3cccs3)=NN2C(=O)CSc2nc(=O)n3cc(C)ccc3n2)cc1 (stereo not drawn) | -30.5%
CCOC(=O)C(=CNNc1cccc(Cl)c1)C(=O)OCC | 7.49%
Cc1ccc(-c2noc(N=O)c2NO)cc1 | 7.87%
COc1cc(OC)cc(C(=O)Nc2cc(-c3cn4cccnc4n3)ccc2C)c1 | -3.96%
CCc1ccc(OCC(=O)O/N=C(\N)c2ccncc2)cc1 | 15.7%
Cc1nc2scc(C)n2c(=O)c1S(=O)(=O)NC(C)c1ccccc1 (stereo not drawn) | 11.6%
COc1ccccc1C(=O)OCCN=C1NS(=O)(=O)c2ccccc21 | 14.1%
COc1ccc(C(CNC(=O)c2ccc(S(=O)(=O)N3CCCC3)cc2)N2CCOCC2)cc1 (stereo not drawn) | 7.32%
O=C(NCCc1ccc(C(F)(F)F)cc1)c1ccc2c(c1)OCO2 | 7.79%
CCCCOc1ccc(CSc2ncn[nH]2)cc1 | 4.88%
COc1ccc(NC(=O)c2cc(-c3cc(C)c(C)cc3O)n[nH]2)c(OC)c1 | 14.2%
CCSc1oc(-c2ccco2)nc1S(=O)(=O)c1ccc(F)cc1 | -0.87%
